The data scatter; read single values as rough.
Assay: amyloid nucleation score relative to library mode (yeast Sup35 reporter selection) (log enrichment difference); higher = more amyloid nucleation; sequences are the first 22 residues of the Bri2 peptide extended by up to 12 random residues
Details: random library (experiment): 1;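 active = nucleation score significantly above 0 at FDR 0.05; inactive = not significantly above 0 or absent from output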
EASNCFAIRHFENKFAVETLICWDALFFCASRN showed an amyloid nucleation score of 4.5.
EASNCFAIRHFENKFAVETLICWDCGQGGLCFTY showed an amyloid nucleation score of 7.95.
With EASNCFAIRHFENKFAVETLICWDGDIFRPRGVA the amyloid nucleation score was “inactive”.
With EASNCFAIRHFENKFAVETLICWDGESLLNSSLS the amyloid nucleation score was “inactive”.
For EASNCFAIRHFENKFAVETLICWDGGSCGVLQAG, the amyloid nucleation score was “inactive”.
For EASNCFAIRHFENKFAVETLICWDGKGLS, the amyloid nucleation score was “inactive”.
For EASNCFAIRHFENKFAVETLICWDKDWLSSGVAG, the amyloid nucleation score was “inactive”.
In the case of EASNCFAIRHFENKFAVETLICWDLWKIVYASVW, the amyloid nucleation score is reported as “inactive”.
With EASNCFAIRHFENKFAVETLICWDTARTARGDVC the amyloid nucleation score was “inactive”.
For EASNCFAIRHFENKFAVETLICWDTDCGPEEKGR, the amyloid nucleation score was “inactive”.
With EASNCFAIRHFENKFAVETLICWDVMKCFRFFSG the amyloid nucleation score was 5.61.
In the case of EASNCFAIRHFENKFAVETLICWDVRQKRHKLRG, the amyloid nucleation score is reported as “inactive”.
Work on EASNCFAIRHFENKFAVETLICWDVRYLIVCNVG yielded an amyloid nucleation score of 0.218.
In the case of EASNCFAIRHFENKFAVETLICWDYTAAMTVRSS, the amyloid nucleation score is reported as “inactive”.
With EASNCFAIRHFENKFAVETLICWEEGPHEWLCLG the amyloid nucleation score was “inactive”.
With EASNCFAIRHFENKFAVETLICWEKRKSWVWCRV the amyloid nucleation score was “inactive”.
For EASNCFAIRHFENKFAVETLICWELAGVAVGALT, the amyloid nucleation score was “inactive”.
EASNCFAIRHFENKFAVETLICWERACASWNGWR gave an amyloid nucleation score of 3.98.
In the case of EASNCFAIRHFENKFAVETLICWEVMWARLAWPS, the amyloid nucleation score is reported as 0.256.
For EASNCFAIRHFENKFAVETLICWEVSGFWRFMCR, the amyloid nucleation score was 0.782.
In the case of EASNCFAIRHFENKFAVETLICWEVSTVGEVEVK, the amyloid nucleation score is reported as “inactive”.
For EASNCFAIRHFENKFAVETLICWEYTCWRVKRYA, the amyloid nucleation score was 0.796.
Sequence EASNCFAIRHFENKFAVETLICWFCPKTPCVQDV has an amyloid nucleation score of 4.92.
With EASNCFAIRHFENKFAVETLICWFFLWSWVGRVK the amyloid nucleation score was “inactive”.
In the case of EASNCFAIRHFENKFAVETLICWFGLGSRSYNQL, the amyloid nucleation score is reported as “inactive”.
With EASNCFAIRHFENKFAVETLICWFKSWYPARLTV the amyloid nucleation score was “inactive”.
With EASNCFAIRHFENKFAVETLICWFMPWSAFSWLV the amyloid nucleation score was “inactive”.
In the case of EASNCFAIRHFENKFAVETLICWFR, the amyloid nucleation score is reported as “inactive”.
With EASNCFAIRHFENKFAVETLICWFRTEECFSACP the amyloid nucleation score was “inactive”.
In the case of EASNCFAIRHFENKFAVETLICWFVR, the amyloid nucleation score is reported as 0.928.
In the case of EASNCFAIRHFENKFAVETLICWFVSSLPVALLV, the amyloid nucleation score is reported as “inactive”.
With EASNCFAIRHFENKFAVETLICWFWALMWELKRG the amyloid nucleation score was “inactive”.
For EASNCFAIRHFENKFAVETLICWFYSDVKSECCT, the amyloid nucleation score was “inactive”.
Work on EASNCFAIRHFENKFAVETLICWGFTTDGKEAGG yielded an amyloid nucleation score of 5.41.
With EASNCFAIRHFENKFAVETLICWGGMSILAFKGH the amyloid nucleation score was “inactive”.
For EASNCFAIRHFENKFAVETLICWGGNFHEVSRKD, the amyloid nucleation score was 3.12.
In the case of EASNCFAIRHFENKFAVETLICWGGRTRRRSEGW, the amyloid nucleation score is reported as 5.42.
With EASNCFAIRHFENKFAVETLICWGMVG the amyloid nucleation score was “inactive”.
Sequence EASNCFAIRHFENKFAVETLICWGQEISAARRLW has an amyloid nucleation score of 4.66.
With EASNCFAIRHFENKFAVETLICWGSLGAKELGLS the amyloid nucleation score was “inactive”.
In the case of EASNCFAIRHFENKFAVETLICWGSRGCRSWISA, the amyloid nucleation score is reported as “inactive”.
For EASNCFAIRHFENKFAVETLICWGTAKRQVVWWL, the amyloid nucleation score was “inactive”.
In the case of EASNCFAIRHFENKFAVETLICWGWSWNLTCRLE, the amyloid nucleation score is reported as “inactive”.
EASNCFAIRHFENKFAVETLICWHGRGVSEACVW showed an amyloid nucleation score of 2.98.
For EASNCFAIRHFENKFAVETLICWHLATVQRSKWG, the amyloid nucleation score was “inactive”.
For EASNCFAIRHFENKFAVETLICWHLRKPVTKGWW, the amyloid nucleation score was “inactive”.
Sequence EASNCFAIRHFENKFAVETLICWHLYNYF has an amyloid nucleation score of 2.51.
For EASNCFAIRHFENKFAVETLICWHRVSVFQLESA, the amyloid nucleation score was “inactive”.

Same assay, conditions: random library (experiment): 2
With EASNCFAIRHFENKFAVETLICWCYPIIVYMSPQ the amyloid nucleation score was “inactive”.
With EASNCFAIRHFENKFAVETLICWCYV the amyloid nucleation score was -0.392.
For EASNCFAIRHFENKFAVETLICWDCGSLPQRWSP, the amyloid nucleation score was 5.03.
With EASNCFAIRHFENKFAVETLICWDLRRINVSVRT the amyloid nucleation score was “inactive”.
For EASNCFAIRHFENKFAVETLICWDVYGAAVVMVV, the amyloid nucleation score was “inactive”.
For EASNCFAIRHFENKFAVETLICWE, the amyloid nucleation score was -0.131.
With EASNCFAIRHFENKFAVETLICWEGTYQPLTGLC the amyloid nucleation score was -1.34.
With EASNCFAIRHFENKFAVETLICWEKDNSFNHTSW the amyloid nucleation score was 4.38.
With EASNCFAIRHFENKFAVETLICWEKSVDGLALVC the amyloid nucleation score was “inactive”.
With EASNCFAIRHFENKFAVETLICWELYDCYFIPWG the amyloid nucleation score was “inactive”.
Work on EASNCFAIRHFENKFAVETLICWEMNLWLFGCTD yielded an amyloid nucleation score of -0.251.
In the case of EASNCFAIRHFENKFAVETLICWEPEYCSESI, the amyloid nucleation score is reported as “inactive”.
In the case of EASNCFAIRHFENKFAVETLICWESRSERQWVQG, the amyloid nucleation score is reported as 1.18.
In the case of EASNCFAIRHFENKFAVETLICWF, the amyloid nucleation score is reported as 3.97.
In the case of EASNCFAIRHFENKFAVETLICWFFCHSTLVCMD, the amyloid nucleation score is reported as “inactive”.
For EASNCFAIRHFENKFAVETLICWFFPYYIRLG, the amyloid nucleation score was -0.476.
EASNCFAIRHFENKFAVETLICWFGFHVSYIRHL gave an amyloid nucleation score of -0.113.
In the case of EASNCFAIRHFENKFAVETLICWFGHVNGVCQ, the amyloid nucleation score is reported as 2.16.
With EASNCFAIRHFENKFAVETLICWFGTNFAVFF the amyloid nucleation score was 5.3.
In the case of EASNCFAIRHFENKFAVETLICWFLGRRRRNNWA, the amyloid nucleation score is reported as “inactive”.
In the case of EASNCFAIRHFENKFAVETLICWFSTFPCCANSF, the amyloid nucleation score is reported as 4.94.
For EASNCFAIRHFENKFAVETLICWFSTTIPPVSSC, the amyloid nucleation score was 5.43.
With EASNCFAIRHFENKFAVETLICWFV the amyloid nucleation score was 2.53.
With EASNCFAIRHFENKFAVETLICWFWNLQRSERYM the amyloid nucleation score was “inactive”.
In the case of EASNCFAIRHFENKFAVETLICWFYTLLKRSVVF, the amyloid nucleation score is reported as “inactive”.
With EASNCFAIRHFENKFAVETLICWGCWSFCAGRAA the amyloid nucleation score was 7.03.
With EASNCFAIRHFENKFAVETLICWGESNGQCEIES the amyloid nucleation score was 0.664.
Work on EASNCFAIRHFENKFAVETLICWGF yielded an amyloid nucleation score of 5.51.
In the case of EASNCFAIRHFENKFAVETLICWGLIRELRNSWH, the amyloid nucleation score is reported as “inactive”.
For EASNCFAIRHFENKFAVETLICWGLNHGRCVEWS, the amyloid nucleation score was 5.35.
EASNCFAIRHFENKFAVETLICWGMISMYNGVMV gave an amyloid nucleation score of -0.14.
With EASNCFAIRHFENKFAVETLICWGPRHLYCRVGH the amyloid nucleation score was “inactive”.
Work on EASNCFAIRHFENKFAVETLICWGPVTCWEAWRT yielded an amyloid nucleation score of 3.55.
In the case of EASNCFAIRHFENKFAVETLICWGRWF, the amyloid nucleation score is reported as 2.81.
With EASNCFAIRHFENKFAVETLICWGVCYIVMLS the amyloid nucleation score was “inactive”.
EASNCFAIRHFENKFAVETLICWGVSLKDGGSPS gave an amyloid nucleation score of 5.32.
With EASNCFAIRHFENKFAVETLICWGYPSRRQLLKW the amyloid nucleation score was 5.33.

Same assay, conditions: random library (experiment): 3
With EASNCFAIRHFENKFAVETLICWCWEASAWRG the amyloid nucleation score was -0.0354.
In the case of EASNCFAIRHFENKFAVETLICWCYSRSWRSIEW, the amyloid nucleation score is reported as “inactive”.
With EASNCFAIRHFENKFAVETLICWDAPHGG the amyloid nucleation score was “inactive”.
For EASNCFAIRHFENKFAVETLICWDELLYIGTVVL, the amyloid nucleation score was “inactive”.
With EASNCFAIRHFENKFAVETLICWDGSGFMRRHQD the amyloid nucleation score was 3.59.
For EASNCFAIRHFENKFAVETLICWDKYRWAHATLM, the amyloid nucleation score was “inactive”.
With EASNCFAIRHFENKFAVETLICWDRCNSTVIWFG the amyloid nucleation score was 1.33.
In the case of EASNCFAIRHFENKFAVETLICWDRMICRFKRKL, the amyloid nucleation score is reported as “inactive”.
Work on EASNCFAIRHFENKFAVETLICWDTGVSSQWYAH yielded an amyloid nucleation score of 0.0944.
Work on EASNCFAIRHFENKFAVETLICWEVKWGRREVGL yielded an amyloid nucleation score of 1.74.
EASNCFAIRHFENKFAVETLICWEVRPEDRELPW showed an amyloid nucleation score of 1.76.
For EASNCFAIRHFENKFAVETLICWEYCPFLASKWV, the amyloid nucleation score was “inactive”.
For EASNCFAIRHFENKFAVETLICWFAR, the amyloid nucleation score was 4.
Sequence EASNCFAIRHFENKFAVETLICWFEKDVWQQFAQ has an amyloid nucleation score of 4.24.
In the case of EASNCFAIRHFENKFAVETLICWFFVYLEDVATV, the amyloid nucleation score is reported as “inactive”.
In the case of EASNCFAIRHFENKFAVETLICWFGLSMFDVR, the amyloid nucleation score is reported as “inactive”.
Sequence EASNCFAIRHFENKFAVETLICWFQ has an amyloid nucleation score of 5.65.
With EASNCFAIRHFENKFAVETLICWFQGKVKRAWWS the amyloid nucleation score was “inactive”.
With EASNCFAIRHFENKFAVETLICWFQLAESRVVTS the amyloid nucleation score was “inactive”.
In the case of EASNCFAIRHFENKFAVETLICWFRAPCKDTILM, the amyloid nucleation score is reported as “inactive”.
For EASNCFAIRHFENKFAVETLICWFSSPNTYQRFM, the amyloid nucleation score was 0.702.
For EASNCFAIRHFENKFAVETLICWFSVHADGKVSM, the amyloid nucleation score was 4.2.
For EASNCFAIRHFENKFAVETLICWG, the amyloid nucleation score was “inactive”.
In the case of EASNCFAIRHFENKFAVETLICWGAIFSC, the amyloid nucleation score is reported as 7.06.
In the case of EASNCFAIRHFENKFAVETLICWGCFAVGLAWQV, the amyloid nucleation score is reported as “inactive”.
For EASNCFAIRHFENKFAVETLICWGKSSYTWSMSG, the amyloid nucleation score was “inactive”.
With EASNCFAIRHFENKFAVETLICWGLG the amyloid nucleation score was 7.16.
For EASNCFAIRHFENKFAVETLICWGLGVRPLQPDA, the amyloid nucleation score was “inactive”.
In the case of EASNCFAIRHFENKFAVETLICWGMPVTQSRVVI, the amyloid nucleation score is reported as “inactive”.
With EASNCFAIRHFENKFAVETLICWGMVTLKRGLVA the amyloid nucleation score was “inactive”.
In the case of EASNCFAIRHFENKFAVETLICWGRDTWIHFK, the amyloid nucleation score is reported as “inactive”.
With EASNCFAIRHFENKFAVETLICWGVAPGSGSVED the amyloid nucleation score was 4.38.
Sequence EASNCFAIRHFENKFAVETLICWHAVEGFEWSRK has an amyloid nucleation score of 3.26.
Sequence EASNCFAIRHFENKFAVETLICWHTCWLWQWE has an amyloid nucleation score of 2.39.

Reference: the supplement of paper PMC12067230
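Further: [psi-pin-] Saccharomyces cerevisiae expressing SupN fusions, induced by 100 µM Cu2SO4, selected 7 d at 30 °C without adenine and uracil, scored by deep sequencing of output versus input.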
